Assay results as given in patent publication EP1892250A2 (Munin Corporation, dated 2008).

Key:
[1] = target: T1, Fisp12 (mouse, UniProt P29268 26-348); experiment: solid-phase binding isotherm, varying concentrations of RGD-affinity purified αIIbβ3 on immobilized Fisp12/mCTGF; printed as half-saturation
T1 construct: Recombinant, baculovirus/Sf9, purified from serum-free conditioned medium; also called Fisp12/mCTGF; mCTGF
T1 sequence: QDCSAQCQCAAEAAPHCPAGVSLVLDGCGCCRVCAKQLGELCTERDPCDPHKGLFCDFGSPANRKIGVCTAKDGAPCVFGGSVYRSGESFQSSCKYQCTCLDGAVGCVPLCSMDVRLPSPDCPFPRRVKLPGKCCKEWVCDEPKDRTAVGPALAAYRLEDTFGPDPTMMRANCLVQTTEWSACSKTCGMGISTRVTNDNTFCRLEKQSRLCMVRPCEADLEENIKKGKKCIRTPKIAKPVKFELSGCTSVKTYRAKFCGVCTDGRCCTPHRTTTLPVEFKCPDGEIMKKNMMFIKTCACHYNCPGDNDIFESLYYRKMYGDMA

[2] = target: Cyr61 (recombinant, species not stated in the example); experiment: solid-phase binding isotherm, varying concentrations of RGD-affinity purified αIIbβ3 on immobilized Cyr61; printed as half-saturation

B1: activated αIIbβ3 purified from human platelets (receptor)
chain 1: not shown
chain 2: GPNICTTRGVSSCQQCLAVSPMCAWCSDEALPLGSPRCDLKENLLKDNCAPESIEFPVSEARVLEDRPLSDKGSGDSSQVTQVSPQRIALRLRPDDSKNFSIQVRQVEDYPVDIYYLMDLSYSMKDDLWSIQNLGTKLATQMRKLTSNLRIGFGAFVDKPVSPYMYISPPEALENPCYDMKTTCLPMFGYKHVLTLTDQVTRFNEEVKKQSVSRNRDAPEGGFDAIMQATVCDEKIGWRNDASHLLVFTTDAKTHIALDGRLAGIVQPNDGQCHVGSDNHYSASTTMDYPSLGLMTEKLSQKNINLIFAVTENVVNLYQNYSELIPGTTVGVLSMDSSNVLQLIVDAYGKIRSKVELEVRDLPEELSLSFNATCLNNEVIPGLKSCMGLKIGDTVSFSIEAKVRGCPQEKEKSFTIKPVGFKDSLIVQVTFDCDCACQAQAEPNSHRCNNGNGTFECGVCRCGPGWLGSQCECSEEDYRPSQQDECSPREGQPVCSQRGECLCGQCVCHSSDFGKITGKYCECDDFSCVRYKGEMCSGHGQCSCGDCLCDSDWTGYYCNCTTRTDTCMSSNGLLCSGRGKCECGSCVCIQPGSYGDTCEKCPTCPDACTFKKECVECKKFDRGALHDENTCNRYCRDEIESVKELKDTGKDAVNCTYKNEDDCVVRFQYYEDSSGKSILYVVEEPECPKGPDILVVLLSVMGAILLIGLAALLIWKLLITIHDRKEFAKFEEERARAKWDTANNPLYKEATSTFTNITYRGT
notes: mature; also called α11bβ3
Binder B1 has an EC50 [1] of 15 nM and an EC50 [2] of 25 nM.
